# Assay results from PubChem BioAssay AID652104 (National Center for Advancing Translational Sciences (NCATS), 2013).
# About 7,200 (1.8%) of roughly 410,000 compounds were called active. Inconclusive results, whose numbers are uncertain, are shown with a selection of clear calls. Calls come from the whole dose curve; as a rule, active = well fitted activation curve with a large enough effect; inconclusive = small, poorly fitted or top-dose-only effect, or another doubt; inactive = no such curve, though single readings can be large or run the other way. Potencies of inconclusive entries are left out as doubtful fits.
# Assay: qHTS of TDP-43 Inhibitors; note: nearly all actives have a fitted effect of over 50% in size; for growth rescue (activation): % of control where 0% means no effect
# Conditions: TDP-43 expressing yeast growth rescue, BacTiter-Glo, 24 h; growth rescue (activation): at 46.1 µM (top of the series) unless noted
# Procedure, shortened: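 Readout is BacTiter-Glo luminescence of cell growth, so inhibitors register as activators. TDP-43-expressing yeast at OD600=0.02 in galactose medium, after raffinose pregrowth to mid-log, were incubated with compound for 24 hr at 30 deg C.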
# Potency is the fitted concentration of half-maximal effect; tags give direction and shape of the fitted curve.
Structure (SMILES),Potency,growth rescue (activation)
CCCCN1C(=O)/C(=C(/C#N)C(N)=O)c2ccccc21,"inconclusive [activator, single point]",–
CC1(c2nc3ccccc3[nH]2)c2ccccc2C(=O)N1Cc1ccccc1 (stereo unspecified),–,inactive: -14.5%
CC(=O)Nc1cc(-c2ccccc2)ccc1O,–,inactive: 15.7%
C#CCOC(=O)c1ccccc1C(=O)n1nnc2ccccc21,"inconclusive [activator, single point]",–
CC(=O)c1cc(-c2ccccc2)n(CCC(=O)NCc2ccc(C)cc2)c1C,"inconclusive [activator, partial curve]",–
Cc1nn(-c2ccccc2)c2c1N(CC(=O)N1CCN(c3ccc(F)cc3)CC1)C(=O)CS2,"inconclusive [activator, partial curve, poor fit]",–
Cc1ccc(-n2c(=S)sc3c(=O)n(-c4ccccc4C)c(SCC(=O)O)nc32)cc1C,–,inactive: 13.1%
CCNC(=S)N(CCN(C)C)Cc1cc2cc(OCC)ccc2[nH]c1=O,–,inactive: -7.23%
Cc1cc(-c2ccc(C)c(S(=O)(=O)NC3CCCCC3)c2)on1,"inconclusive [activator, single point]",–
Cc1ccc(Cn2c(=O)c3c(nc4n3CCN4Cc3ccco3)n(C)c2=O)cc1,"inconclusive [activator, single point]",–
O=C(Nc1cccc(OC(=O)c2ccco2)c1)c1ccco1,"inconclusive [activator, partial curve]",–
COc1ccccc1C1CC(c2ccco2)=NN1c1ccccc1 (stereo unspecified),–,inactive: 12.5%
O=C(COC(=O)c1nc(Cl)c(Cl)c(Cl)c1Cl)NCc1ccccc1,"inconclusive [activator, partial curve]",–
N#Cc1cccc(C(=O)OCC(=O)NC(=O)NC2CCCCC2)c1,–,inactive: 4.84%
C=CCC1c2cccc(C(=O)O)c2C(=O)N1c1ccc(F)cc1 (stereo unspecified),"inconclusive [activator, single point]",–
O=C(O)/C=C/c1cnn(-c2ccccc2)c1,active: 35.5 µM,–
Cc1c(C(=O)NCCCN2CCCC2=O)oc2ccccc12,–,inactive: -14%
COc1ccc(NC(=S)N2CCC(C(=O)c3ccc(OC)cc3)CC2)cc1,"inconclusive [activator, single point]",–
CCc1nc2c(OCCC3CCCCC3)cccn2c1N(C)C(=O)c1ccco1,"inconclusive [activator, partial curve]",–
O=C1NN=C(c2ccc(Br)cc2)CC1c1ccc(Cl)cc1 (stereo unspecified),"inconclusive [activator, single point]",–
O=C(O)CCC(=O)NCc1ccc(C(=O)O)cc1,–,inactive: 11%
CN(C)C1=NCCN1CCc1cccc(F)c1,"inconclusive [activator, partial curve]",–
CCCCCSc1nnc(-c2ccc(Br)cc2)o1,"inconclusive [activator, single point]",–
CN(C)c1ccc(CC(=O)N2CCCC(c3cc(C(=O)Nc4ccc(C(C)(C)C)cc4)no3)C2)cc1 (stereo unspecified),"inconclusive [activator, partial curve]",–

Structure (SMILES),Potency,growth rescue (activation)
COc1ccc(CCNC(=O)CCn2cccc2)cc1OC,–,inactive: 10.5%
CCOC(=O)N1CCN(C(=O)c2ccc(CSc3ccc(Cl)cc3)cc2)CC1,"inconclusive [activator, single point]",–
COC(=O)Cc1ccc(NC(=S)N2CCC(Cc3ccccc3)CC2)cc1,"inconclusive [activator, single point]",–
COC(=O)c1cnc(Nc2nc(CN)cs2)nc1C(F)(F)F,–,inactive: 12.6%
CCCCOc1cccc(C(=O)Nc2cccc(-c3nc4ncccc4o3)c2C)c1,"inconclusive [activator, full curve]",–
CCn1cc(Br)c(C(=O)Nc2ccc(F)c(Cl)c2)n1,active: 11.2 µM,–
O=C(Nc1cccc2c1CCCC2)c1cc(C2CCCCN2C(=O)OCCF)on1 (stereo unspecified),"inconclusive [activator, partial curve]",–
CCOc1ccccc1Nc1nnc(SCc2ccc(C(=O)OC)o2)s1,"inconclusive [activator, single point]",–
CCOc1ccc(CCNC(=O)COC(=O)c2nc(Cl)ccc2Cl)cc1OCC,"inconclusive [activator, single point]",–
CSc1ccccc1NC(=O)c1cnc2scc(C)n2c1=O,"inconclusive [activator, partial curve]",–
Cc1cc(C)cc(NC(=O)COC(=O)CCC2CCCC2)c1,active: 12.6 µM,–
Cc1noc(/C=C/N(C)C)c1S(=O)(=O)N1CCCC(C(=O)NC2CCCCC2C)C1 (stereo unspecified),"inconclusive [activator, full curve]",–
CCC(COC(=O)Nc1cccc(C)c1)NC(=O)OCC(C)C (stereo unspecified),–,inactive: 0%
O=C(Nc1ccon1)c1cc(-c2ccccc2)nc2ccccc12,"inconclusive [activator, partial curve]",–
O=C(NCc1ccccc1)C(C1CC1)n1c(=O)c(-c2cc3ccccc3[nH]2)nc2ccccc21 (stereo unspecified),"inconclusive [activator, partial curve]",–
Cc1ccc(C)c(NC(=O)c2cc(S(=O)(=O)N3CCCc4ccccc43)ccc2F)c1,–,inactive: 18.5%
O=c1oc2ccccc2c(NC2CCCCC2)c1NS(=O)(=O)c1ccc(Br)cc1,–,inactive: 1.26%
Fc1ccc(/C=C\c2nccc3c2[nH]c2ccccc23)cc1,"inconclusive [activator, partial curve]",–
CC1(Cc2ccc(C(F)(F)F)o2)C(=O)Nc2ccc(-c3cccc(C(F)(F)F)c3)cc21 (stereo unspecified),–,inactive: 17.2%
Cc1ccc(NC2CCCN(C(=O)c3ccc(F)cc3)C2)cc1C (stereo unspecified),"inconclusive [activator, single point]",–
CCOC1=C2CN(S(=O)(=O)c3ccc(C)cc3)[C@H](c3cccc4ccccc34)C[C@H]2[C@H]2C(=O)N(c3ccccc3)C(=O)[C@H]2C1,–,inactive: 18.6%
C=CCOn1c(=O)c(-c2cccs2)[n+]([O-])c2ccccc21,"inconclusive [activator, single point]",–
CNC(=S)N(C)/N=C1/C(=O)N(Cc2c(Cl)cccc2Cl)c2ccccc21,"inconclusive [activator, full curve, poor fit]",–
O=C1OC[C@H](Cc2ccc3c(c2)OCO3)/C1=C\c1ccc2c(c1)OCO2,"inconclusive [activator, single point]",–

Structure (SMILES),Potency,growth rescue (activation)
COc1ccc(NC(=O)COc2cccnc2[N+](=O)[O-])cc1OC,"inconclusive [activator, partial curve]",–
O=C(Nc1ccc(F)cc1)c1cccnc1NCCc1ccccc1,active: 12.6 µM,–
COc1ccc(C)cc1NC(=O)C1CCN(S(=O)(=O)c2c(C)noc2/C=C/c2ccco2)CC1,–,inactive: 4.52%
CSc1ccccc1C(=O)N1CCN(c2cccc(Cl)c2)CC1,"inconclusive [activator, single point]",–
COc1ccc2oc(C(=O)NCCc3ccccc3)c(C)c2c1,"inconclusive [activator, single point]",–
O=C1ON=C(c2ccccc2)/C1=C/c1ccc(O)cc1,"inconclusive [activator, single point]",–
O=C(Nc1nnc(-c2ccco2)o1)c1ccc2ccccc2c1,–,inactive: -4.24%
O=C(c1ccccc1Br)N1CCc2c([nH]c3ccccc23)C1,active: 17.8 µM,–
O=C(NNS(=O)(=O)c1ccc(C(F)(F)F)cc1)c1cnn(-c2ccccc2)c1C(F)(F)F,–,inactive: 10.6%
Cc1ccc(S(=O)(=O)NCc2nc(-c3ccccc3)no2)cc1,"inconclusive [activator, partial curve]",–
CCS(=O)(=O)N1CCC(C(=O)Oc2ccc(Cl)cc2)CC1,"inconclusive [activator, partial curve]",–
Cn1cc(CN2CCCC(C(=O)c3nccn3C)C2)c(-c2cccc(Cl)c2)n1 (stereo unspecified),–,inactive: -12.3%
O=S(=O)(Nc1cc(F)ccc1F)c1cccc2nsnc12,"inconclusive [activator, partial curve]",–
O=C(O)c1cccc(Cn2cc(Br)cn2)c1,"inconclusive [activator, full curve, poor fit]",–
CCCNC(=O)c1c(C)nn(-c2cccc(C)c2)c1-n1cccc1,"inconclusive [activator, partial curve, poor fit]",–
CC(=O)c1ccc(OCC(=O)Nc2ccccc2N2CCCC2)cc1,"inconclusive [activator, partial curve]",–
CCc1nn(C(C)C(=O)N2CCN(c3cccc(C(F)(F)F)c3)CC2)c(=O)c2cc3occc3n12 (stereo unspecified),"inconclusive [activator, single point]",–
O=S1(=O)C=C[C@@H](COCc2ccccc2)N1Cc1ccc(Br)cc1,"inconclusive [activator, single point]",–
Cc1onc(-c2c(F)cccc2Cl)c1C(=O)NC(=S)NC1CCSC1=O (stereo unspecified),"inconclusive [activator, single point]",–
O=C(Cn1nnc2c(cnn2-c2ccc(F)cc2)c1=O)Nc1ccccc1C(F)(F)F,–,inactive: 13.9%
CCN1C(=O)/C(=C2/C=CC=CN2C)OC1=S,"inconclusive [activator, partial curve]",–
CCOCC(O)CSCc1ccc(Cl)cc1 (stereo unspecified),"inconclusive [activator, partial curve]",–
CCOc1ccc(C(=O)OCC(=O)NC2CCCCCCC2)cc1,"inconclusive [activator, single point]",–
